Assay results taken from article PMC6919601, “Identification of Plasmodium dipeptidyl aminopeptidase allosteric inhibitors by high throughput screening” (PLoS ONE, 2019).
Several values for one entry are separate records, joined by “and”; a condition that tells them apart may be missing. Equal entries are not always repeated. Hit rate of the full screen: of about 110,000 compounds, about 230 (0.21%) showed an effect of 50% or more. This is one part of the list.

Target: DPAP1 (Plasmodium falciparum, UniProt Q8IIJ9)
Sequence (Q8IIJ9 whole entry, looked up): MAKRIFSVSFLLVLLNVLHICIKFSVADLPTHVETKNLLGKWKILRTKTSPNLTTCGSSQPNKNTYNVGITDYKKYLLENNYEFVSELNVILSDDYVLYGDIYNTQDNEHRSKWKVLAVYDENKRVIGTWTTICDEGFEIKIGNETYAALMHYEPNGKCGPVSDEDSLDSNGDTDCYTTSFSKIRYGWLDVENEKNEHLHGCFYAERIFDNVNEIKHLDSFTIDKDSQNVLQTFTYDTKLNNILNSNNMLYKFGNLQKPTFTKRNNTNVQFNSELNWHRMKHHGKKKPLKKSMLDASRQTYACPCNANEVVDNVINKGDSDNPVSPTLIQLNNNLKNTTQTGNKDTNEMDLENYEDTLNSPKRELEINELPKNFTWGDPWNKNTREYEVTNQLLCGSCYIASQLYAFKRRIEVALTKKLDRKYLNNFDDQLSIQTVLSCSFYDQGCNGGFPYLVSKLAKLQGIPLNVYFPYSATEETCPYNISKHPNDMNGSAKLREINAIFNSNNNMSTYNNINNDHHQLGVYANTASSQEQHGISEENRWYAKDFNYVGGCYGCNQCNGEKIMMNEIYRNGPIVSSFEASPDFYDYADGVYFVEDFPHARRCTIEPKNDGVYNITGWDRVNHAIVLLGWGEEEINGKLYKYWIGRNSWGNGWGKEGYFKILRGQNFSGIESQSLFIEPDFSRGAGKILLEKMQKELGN
Assay: primary screen, percent inhibition; read by cleavage of a fluorogenic dipeptide substrate; higher = more effect of the substance
Design: species or system P. falciparum D10 trophozoite lysates; single well
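Note: 30 min substrate incubation versus DMSO and 10 µM JCP410 controls.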

Point of comparison: `COc1ccc(CCN(C)CC(=O)Nc2c3c(nc4ccccc24)N(Cc2ccccc2)CC3)cc1OC`, “% Inhibition @ 10 uM” value -0.13%. Against it:
- c1ccc(CSc2ccc(-c3cccs3)nn2)cc1 — lower, -0.256%
- O=C(CSc1nc2ccc(Cl)cc2o1)Nc1nc(-c2ccccc2)no1 — lower, -0.92%
- C[C@@H]1CC2(CCCN2Cc2ccccc2)C[C@H]1C — lower, -2.45%
- O=C(c1cnn(-c2ccccc2)c1-n1cccc1)N1CCc2ccccc2C1 — higher, 3.2%
- Cc1cc2cc(CO)c(O)nc2cc1C — higher, 2.05%
- CN1CCc2c(sc(N)c2C(N)=O)C1 — higher, 2.22%
- Cc1cccc(OCC(=O)NCc2ccc(F)cc2)c1 — lower, -10%
- O=C(COc1ccccc1)Nc1ccc(S(=O)(=O)N2CCCC2)cc1 — higher, 2.39%
- O=C(Nc1cccnc1)C1CC(c2ccccc2F)=NO1 (centres unmarked) — higher, 1.24%
- CCc1nc2ccccc2n1CCCOc1ccc(C)cc1 — higher, 2.73%
- CCOCCCNC(=O)CSc1nc2nc(C)cc(C)n2n1 — lower, -4.29%
- NS(=O)(=O)c1cccc(NS(=O)(=O)c2ccc(Cl)c([N+](=O)[O-])c2)c1 — higher, 3.06%
- COc1ccc(Br)cc1CN1CCCN(C)CC1 — lower, -2.56%
- COc1ccc(C2CC(O)=C/C(=N/c3ccc(C)c(C)c3)C2)cc1OC (centres unmarked) — higher, 0.674%
- COc1ccc(-c2cc(C(F)(F)F)n3nc(C(=O)N(C)Cc4cn(C)nc4C)cc3n2)cc1OC — lower, -2.29%
- CCOC(=O)N1CCC(NC(=O)C2CCCN(Cc3nc(-c4ccc(CC)cc4)oc3C)C2)CC1 (centres unmarked) — lower, -1.05%
- Cc1ccsc1CN(C(=O)COc1c(F)c(F)c(F)c(F)c1F)C1CCS(=O)(=O)C1 (centres unmarked) — higher, 2.19%
- CN(C)c1ccc(-c2nc(S)nc(O)c2C#N)cc1 — higher, -0.0217%
- OC(C#CC12CC3CC(CC(C3)C1)C2)c1cccnc1 (centres unmarked) — lower, -6.83%
- CN(C1CCCCC1)S(=O)(=O)N1CCCC(C(=O)NCc2ccccc2Cl)C1 (centres unmarked) — lower, -2.56%
- OCC(C#CCN1CCCC1)NCc1ccccc1 (centres unmarked) — lower, -3.81%
- FC(F)(F)c1ccccc1CNCC1NCCc2ccccc21 (centres unmarked) — higher, 1.01%
- CC[C@H](NC(=O)[C@H](CC(C)(C)C)N[C@@H](c1ccc(F)cc1)C(F)(F)Sc1ccc(F)cc1)C(=O)c1nc2ccccc2o1 — lower, -1.5%
- CO/C(O)=C1\Sc2ccccc2N=C1C — lower, -0.436%
- COc1ccc(C2(C(=O)N3CCCC3)CCOCC2)cc1 — lower, -2.75%
- COc1ccc(-c2c(N)n[nH]c2C)cc1 — lower, -5.47%
- COc1cc(C(C2=C(O)CC(C)(C)CC2=O)C2C(=O)CC(C)(C)CC2=O)cc(OC)c1OC (centres unmarked) — lower, -3.1%
- Cc1cc(C(F)(F)F)nn1CC(=O)Nc1ccc(S(N)(=O)=O)cc1 — lower, -4.66%
- O=C(O)CCc1nnc2n(CCc3ccccc3)c(=O)c3ccccc3n12 — lower, -2.42%
- CC(C)N(Cc1ccccc1)C(=O)Cc1ccccc1 — higher, 2.65%
- COC(=O)C1=CN(C(C)C)C=C(C(=O)OC)C1c1cc(OC)c(OC)c(OC)c1 — lower, -3.23%
- O=C1OC(OC(=O)c2ccccc2Br)C(N2CCOCC2)=C1Cl (centres unmarked) — higher, 1.96%
- O=C(O)C1C2C=CC(C2)C1C(=O)NCc1ccccn1 (centres unmarked) — higher, 4.28%
- O=C(Nc1cccc(F)c1)c1cc(F)c(F)cc1Cl — higher, 0.968%
- COc1ccc(OC)c(C2C(C#N)=C(C)N=C3CC(c4ccc(Cl)cc4)CC(O)=C32)c1 (centres unmarked) — lower, -1.2%
- COc1ccc(Cl)cc1NC(=O)c1ccc(F)cc1 — lower, -13.3%
- Cc1cc(C)nc(SCC(=O)Nc2nc3c(s2)CC(C)CC3)n1 (centres unmarked) — lower, -3.49%
- COc1cccc(CN2C[C@@H]3C[C@H](C2)c2cccc(=O)n2C3)c1OC — lower, -7.15%
- Fc1cccc(CN2CCCCC2c2cccnc2)c1 (centres unmarked) — lower, -0.582%
- CCOc1ccccc1C1NC(=O)NC(c2ccccc2)=C1C(=O)c1ccccc1 (centres unmarked) — lower, -5.07%
- O=C(CSc1cn(Cc2ccc(F)cc2)c2ccccc12)Nc1nccs1 — higher, 3.37%
- CC(=O)c1cccc(NC(=O)c2sc(Cl)nc2C)c1 — higher, -0.116%
- CCCOc1cccc(C(=O)Nc2ccc(Br)cc2F)c1 — higher, 3.06%
- CCSC1=C(C#N)C(c2ccc(OC)c(OC)c2)C2=C(O)CC(C)(C)CC2=N1 (centres unmarked) — higher, 2.01%
- Nc1c(C(=O)NCc2ccccc2)sc2nc(-c3ccc(F)cc3)ccc12 — higher, 1.86%
- CCc1cc2c(cc1C(C)NC(C)=O)OCCO2 (centres unmarked) — higher, 1.83%
- N#Cc1c(N/C=C/C(=O)c2ccccc2)sc2c1CCCC2 — lower, -1.21%
- COc1cc(C(=O)Nc2cc(C(F)(F)F)ccc2N2CCOCC2)ccc1O — lower, -7.08%
- CCCN1CCC(NCc2ccc(Cl)c(Cl)c2)CC1 — higher, 3.44%
- C=CCN1C(=O)S/C(=C\c2cn(CC(=O)N3CCOCC3)c3ccccc23)C1=O — higher, 8.3%
- COc1ccc(OC)c(CNCc2c(C(=O)O)c(C)n(Cc3ccccc3F)c2C)c1 — higher, 1.41%
- COc1ccc(/C=C(\NC(=O)c2ccccc2Cl)C(=O)N2CCOCC2)cc1 — higher, 12.8%
- COC(=O)c1sc2nc3c(cc2c1N)CCCC3 — higher, 4.38%
- COc1ccc(S(=O)(=O)N2CCN(Cc3ccccc3OC)CC2)cc1 — higher, 3.86%
- CCOc1cc(/C=C(/C#N)c2nc3ccccc3[nH]2)ccc1OCC(=O)O — higher, 1.35%
- CN1C(=O)C(CC(=O)c2ccc(Br)cc2)c2ccccc21 (centres unmarked) — higher, 0.408%
- CC1CN=C(/C=C(O)/C=C/c2ccccc2)C(=O)N1 (centres unmarked) — lower, -1.4%
- Cc1coc2c(C)c3oc(=O)c(CC(=O)N4CCCC4)c(C)c3cc12 — higher, 2.54%
- COc1ccc(CNC(=O)c2cccs2)cc1 — higher, 2.46%
- COc1ccc(-c2cc(C(=O)NCc3cn(C)nc3C)c3cc(Br)ccc3n2)cc1 — higher, 1.86%
- O=C1CC(c2cccc3ccccc23)C2=C(CCCC2=O)N1 (centres unmarked) — lower, -2.24%
- C=CCn1c(SCC(N)=O)nc2sc(CC)cc2c1=O — higher, 2.36%
- COc1ccc(-c2cc(C(F)(F)F)nc(SCC(=O)NC3CCCC3)n2)cc1 — higher, 4.08%
- CC12CN(C(=O)c3ccccc3)CC(C)(CN(C(=O)c3ccccc3)C1)C2O (centres unmarked) — lower, -11.1%
- NS(=O)(=O)c1ccc(-c2ccc(/C=c3\sc4nc5ccccc5n4c3=O)o2)cc1 — higher, 1.37%
- CCOc1ccc(C(=O)C2=C(O)C(=O)N(CCCN(C)C)C2c2ccccc2F)cc1C (centres unmarked) — lower, -3.75%
- Cc1ccc(SCC(=O)NCc2ccccc2Cl)cc1 — higher, 0.722%
- CC(=O)Nc1ccc(NC(=O)/C=C/c2ccc(C(C)C)cc2)cc1 — lower, -1.99%
- CCOC(=O)C1=C(C)N=c2s/c(=C/c3ccccc3F)c(=O)n2C1c1ccccc1Cl (centres unmarked) — lower, -1.54%
- O=C(O)c1ccc(S(=O)(=O)N2CCOCC2)o1 — lower, -3.53%
- O=C(NCCOc1ccccc1Cl)c1ccc2c3c(cccc13)CC2 — lower, -3.04%
- CCN1C(=O)N/C(=C/c2ccc(N(CC)CC)cc2)C1=O — higher, 0.59%
- C/N=C1\S/C(=C\c2ccc(OCc3cccc(C(=O)O)c3)cc2)C(=O)N1C — lower, -4.39%
- COc1cc2nc3c(O)n(CCCN4CCN(C)CC4)cnc-3c2cc1OC — lower, -3.52%
- Cc1cccc2c1cnn2C(=O)CCC(=O)N1CCc2ccccc2C1 — higher, 1.68%
- Cc1onc(-c2ccccc2)c1C(=O)N1CCN(c2ccccc2)CC1 — lower, -2.99%
- COc1ccccc1N(C(C)=O)C1SC(=O)N(c2ccccc2)C1=O (centres unmarked) — higher, 16.8%
- Cc1cccc(NC(=O)c2sc3nc4c(cc3c2N)CCCC4)c1 — lower, -8.18%
- CC(C)(C)c1ccc(C(=O)N2CCOCC2)cc1 — lower, -1.25%
- C(=C\c1ccccc1)/CN1CCN(Cc2cccc3ccccc23)CC1 — higher, 2.47%
- Cc1cccc(C2C3=C(O)c4ccccc4C3=Nc3c2c(=O)n(C)c(=O)n3C)c1 (centres unmarked) — higher, 8.6%
- COc1ccc2nc3sc(C(=O)NCCN(C)Cc4ccccc4)cc3cc2c1 — lower, -2.12%
- CC(C)C[C@H](NC(=O)[C@H](Cc1c[nH]c2ccccc12)NC(=O)OC(C)(C)C)C(=O)NCC#N — lower, -3.48%
- CO/C(O)=C1\C(C)=NC2=C(C(=O)CC(C)(C)C2)C1c1cc(Br)cc(Br)c1O (centres unmarked) — higher, 21.5%
- Cc1cccc(C(=O)N2CCN(c3ccc(N4CCOCC4)nn3)CC2)c1 — higher, 0.66%
- OC1(c2ccc(Br)cc2)CCN(Cc2ccc(Cl)c(Cl)c2)CC1 — higher, 1.88%
- CC1CCN(S(=O)(=O)c2ccc(Cl)c(C(=O)O)c2)CC1 — lower, -3.44%
- Cc1cc(Cl)ccc1OCCNC(=O)c1cccnc1 — lower, -0.834%
- Cc1ccc2oc(=O)c3cnn(CC(=O)N(C)CCC#N)c3c2c1 — higher, 1.62%
- Cc1cc(C)c(C#N)c(SCc2ccc(Cl)cc2)n1 — higher, 4.41%
- Cc1ccc2nc3c(O)n(CC(=O)NCCC4=CCCCC4)ncc-3c2c1 — lower, -3.45%
- CCCCC1(C)OC(=O)C(=Cc2c[nH]c3ccccc23)C(=O)O1 (centres unmarked) — higher, 3.16%
- Cc1cc(C(=O)NCc2ccc3c(c2)OCO3)n(-c2ccccc2)n1 — lower, -0.971%
- N#C/C(=C\c1ccccc1Cl)c1nc2ccccc2[nH]1 — higher, 4.54%
- Cc1c(Br)c(C(=O)Nc2cccc(CN3CCOCC3)c2)nn1C — higher, 0.389%
- CC(C)CNC(=O)c1cccnc1Nc1ccccc1 — higher, 0.634%
- CCC(C)N1CCN(C(=O)Cc2ccccc2)CC1 (centres unmarked) — higher, 9.48%
- Cc1ccc(C(=O)CC(C(=O)O)c2c[nH]c3ccccc23)cc1 (centres unmarked) — lower, -5.2%
- COc1ccc(-c2csc(N3CCN(C(=O)c4ccco4)CC3)n2)cc1 — higher, 1.03%

`O=C(CN1C(=O)c2ccccc2S1(=O)=O)NCCSCc1ccc(Cl)cc1Cl` was tested, and the “% Inhibition @ 10 uM” value was -6.51% and -6.67%.
